# Measured values taken from the supplement of paper PMC8728848.
# The other results are listed elsewhere or left out.
# How the values were obtained:
# Experiment in all cases: glycan array binding signal (z-score within array); higher = stronger binding
# Conditions in all cases: glycan notation: IUPAC condensed, linker removed
# [1] = target: Gal(b1-4)GlcNAc(b1-3)Gal(b1-4)GlcNAc(b1-3)[Gal(b1-4)GlcNAc(b1-3)Gal(b1-4)GlcNAc(b1-6)]GalNAc
# Outline: (§1)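 The binding signal is a Z-score computed within each array and averaged over linkers. Arrays of the same protein sequence at different concentrations or buffers were also averaged together. Data originate from 3228 arrays in the Consortium for Functional Glycomics database, kept only where the protein sequence was available.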
# [2] = target: Gal(b1-4)GlcNAc(b1-3)Gal(b1-4)GlcNAc(b1-6)[Gal(b1-3)]GalNAc
# Outline: as §1
# [3] = target: Gal(b1-4)GlcNAc(b1-3)Gal(b1-4)[Fuc(a1-3)]GlcNAc(b1-3)Gal(b1-4)[Fuc(a1-3)]GlcNAc
# Outline: as §1
# [4] = target: Gal(b1-4)GlcNAc(b1-3)GalNAc
# Outline: as §1
# [5] = target: Gal(b1-4)GlcNAc(b1-3)[Fuc(a1-3)GlcNAc(b1-6)]Gal(b1-4)Glc
# Outline: as §1
# [6] = target: Gal(b1-4)GlcNAc(b1-3)[Gal(b1-4)GlcNAc(b1-6)]Gal(b1-4)GlcNAc
# Outline: as §1
# [7] = target: Gal(b1-4)GlcNAc(b1-3)[GlcNAc(b1-6)]Gal(b1-4)GlcNAc
# Outline: as §1
# [8] = target: Gal(b1-4)GlcNAc(b1-6)Gal(b1-4)GlcNAc
# Outline: as §1
# [9] = target: Gal(b1-4)GlcNAc(b1-6)GalNAc
# Outline: as §1
# [10] = target: Gal(b1-4)GlcNAc(b1-6)[Gal(b1-3)]GalNAc
# Outline: as §1
# [11] = target: Gal(b1-4)GlcNAc(b1-6)[Gal(b1-4)GlcNAc(b1-3)]GalNAc
# Outline: as §1
# Gal(b1-4)GlcNAc6P = target: Gal(b1-4)GlcNAc6P
# Outline: as §1
# Gal(b1-6)Gal = target: Gal(b1-6)Gal
# Outline: as §1
# Gal3S(b1-3)GalNAc = target: Gal3S(b1-3)GalNAc
# Outline: as §1
# Gal3S(b1-3)GlcNAc = target: Gal3S(b1-3)GlcNAc
# Outline: as §1
# [12] = target: Gal3S(b1-3)[Fuc(a1-4)]GlcNAc
# Outline: as §1
# Gal3S(b1-4)Glc = target: Gal3S(b1-4)Glc
# Outline: as §1
# Gal3S(b1-4)Glc6S = target: Gal3S(b1-4)Glc6S
# Outline: as §1
# Gal3S(b1-4)GlcNAc = target: Gal3S(b1-4)GlcNAc
# Outline: as §1
# [13] = target: Gal3S(b1-4)[Fuc(a1-3)]Glc6S
# Outline: as §1
# [14] = target: Gal3S(b1-4)[Fuc(a1-3)]GlcNAc
# Outline: as §1
# [15] = target: Gal3S(b1-4)[Fuc(a1-3)]GlcNAc6S
# Outline: as §1
# Gal3S4S(b1-4)GlcNAc = target: Gal3S4S(b1-4)GlcNAc
# Outline: as §1
# Gal3S6S(b1-4)GlcNAc = target: Gal3S6S(b1-4)GlcNAc
# Outline: as §1
# Gal3S6S(b1-4)GlcNAc6S = target: Gal3S6S(b1-4)GlcNAc6S
# Outline: as §1
# Gal4S(b1-4)GlcNAc = target: Gal4S(b1-4)GlcNAc
# Outline: as §1
# Gal4S6S(b1-4)GlcNAc = target: Gal4S6S(b1-4)GlcNAc
# Outline: as §1
# Gal6P(b1-4)GlcNAc = target: Gal6P(b1-4)GlcNAc
# Outline: as §1
# Gal6S(b1-3)GlcNAc = target: Gal6S(b1-3)GlcNAc
# Outline: as §1
# Gal6S(b1-3)GlcNAc6S = target: Gal6S(b1-3)GlcNAc6S
# Outline: as §1
# Gal6S(b1-4)Glc = target: Gal6S(b1-4)Glc
# Outline: as §1
# Gal6S(b1-4)Glc6S = target: Gal6S(b1-4)Glc6S
# Outline: as §1
# Gal6S(b1-4)GlcNAc = target: Gal6S(b1-4)GlcNAc
# Outline: as §1
# Gal6S(b1-4)GlcNAc6S = target: Gal6S(b1-4)GlcNAc6S
# Outline: as §1
# GalNAc(a1-3)Gal = target: GalNAc(a1-3)Gal
# Outline: as §1
# GalNAc(a1-3)GalNAc = target: GalNAc(a1-3)GalNAc
# Outline: as §1
# [16] = target: GalNAc(a1-3)GalNAc(b1-3)Gal(a1-4)Gal(b1-4)Glc
# Outline: as §1
# [17] = target: GalNAc(a1-3)GalNAc(b1-3)Gal(a1-4)Gal(b1-4)GlcNAc
# Outline: as §1
# GalNAc(b1-3)Gal = target: GalNAc(b1-3)Gal
# Outline: as §1
# [18] = target: GalNAc(b1-3)Gal(a1-4)Gal(b1-4)GlcNAc
# Outline: as §1
# [19] = target: GalNAc(b1-3)Gal(a1-4)Gal(b1-4)GlcNAc(b1-3)Gal(b1-4)Glc
# Outline: as §1
# [20] = target: GalNAc(b1-3)Gal(a1-6)Gal(b1-4)Glc
# Outline: as §1
# GalNAc(b1-3)GalNAc = target: GalNAc(b1-3)GalNAc
# Outline: as §1
# GalNAc(b1-3)GlcNAc = target: GalNAc(b1-3)GlcNAc
# Outline: as §1
# GalNAc(b1-4)Gal(b1-4)Glc = target: GalNAc(b1-4)Gal(b1-4)Glc
# Outline: as §1
binder,measurement,setting,value
APVPVTKLVCDGDTYKCTAYLDFGDGRWVAQWDTNVFHTG [PhoSpL (Pholiota squarrosa)],glycan array binding signal (z-score),[1],0.619
same,glycan array binding signal (z-score),[2],0.549
same,glycan array binding signal (z-score),[3],-0.394
same,glycan array binding signal (z-score),[4],-0.135
same,glycan array binding signal (z-score),[5],-0.241
same,glycan array binding signal (z-score),[6],-0.284
same,glycan array binding signal (z-score),[7],0.477
same,glycan array binding signal (z-score),[8],-0.064
same,glycan array binding signal (z-score),[9],-0.065
same,glycan array binding signal (z-score),[10],-0.398
same,glycan array binding signal (z-score),[11],-0.473
same,glycan array binding signal (z-score),Gal(b1-4)GlcNAc6P,-0.747
same,glycan array binding signal (z-score),Gal(b1-6)Gal,-0.217
same,glycan array binding signal (z-score),Gal3S(b1-3)GalNAc,-0.131
same,glycan array binding signal (z-score),Gal3S(b1-3)GlcNAc,0.237
same,glycan array binding signal (z-score),[12],-0.222
same,glycan array binding signal (z-score),Gal3S(b1-4)Glc,0.256
same,glycan array binding signal (z-score),Gal3S(b1-4)Glc6S,-0.159
same,glycan array binding signal (z-score),Gal3S(b1-4)GlcNAc,0.134
same,glycan array binding signal (z-score),[13],0.256
same,glycan array binding signal (z-score),[14],0.145
same,glycan array binding signal (z-score),[15],0.305
same,glycan array binding signal (z-score),Gal3S4S(b1-4)GlcNAc,-0.026
same,glycan array binding signal (z-score),Gal3S6S(b1-4)GlcNAc,0.482
same,glycan array binding signal (z-score),Gal3S6S(b1-4)GlcNAc6S,0.329
same,glycan array binding signal (z-score),Gal4S(b1-4)GlcNAc,-0.422
same,glycan array binding signal (z-score),Gal4S6S(b1-4)GlcNAc,-0.269
same,glycan array binding signal (z-score),Gal6P(b1-4)GlcNAc,0.354
same,glycan array binding signal (z-score),Gal6S(b1-3)GlcNAc,-0.149
same,glycan array binding signal (z-score),Gal6S(b1-3)GlcNAc6S,0.396
same,glycan array binding signal (z-score),Gal6S(b1-4)Glc,-0.227
same,glycan array binding signal (z-score),Gal6S(b1-4)Glc6S,-0.687
same,glycan array binding signal (z-score),Gal6S(b1-4)GlcNAc,0.078
same,glycan array binding signal (z-score),Gal6S(b1-4)GlcNAc6S,-0.652
same,glycan array binding signal (z-score),GalNAc(a1-3)Gal,0.154
same,glycan array binding signal (z-score),GalNAc(a1-3)GalNAc,0.004
same,glycan array binding signal (z-score),[16],-0.618
same,glycan array binding signal (z-score),[17],0.539
same,glycan array binding signal (z-score),GalNAc(b1-3)Gal,-0.301
same,glycan array binding signal (z-score),[18],0.249
same,glycan array binding signal (z-score),[19],0.204
same,glycan array binding signal (z-score),[20],-0.18
same,glycan array binding signal (z-score),GalNAc(b1-3)GalNAc,0.085
same,glycan array binding signal (z-score),GalNAc(b1-3)GlcNAc,-0.197
same,glycan array binding signal (z-score),GalNAc(b1-4)Gal(b1-4)Glc,-0.088
